In the supplement of paper PMC10126150 one finds switch fluorescence ratio data, which are given here for 120 sequences.

Sequences with one replicate were seen in a single cluster, so their values are uncertain.
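Note: ATP exposure 15 min at 22 °C before imaging.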

This series concerns ATP. In words: switch fluorescence ratio, 500 uM ATP over buffer (Cy3 cluster intensity, sum of 5 cycles each) (fold (ratio)); higher = stronger signal-on switching upon ATP binding; sequences stand for … in TCGTCGGCAGCGTCAGATGTGTATAAGAGACAGTTTTTTTTTTTTTTTTTTTTTTTTT…TC. The conditions noted are these: aptamer strand: ATP DNA aptamer (quencher-CACCTGGGGGAGTATTGCGGAGGAAGG + anchor), 100 nM annealed; ATP concentration: 500 uM; one replicate. The method, boiled down: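 Five buffer/ATP imaging cycles were run on Cy3-labelled switching-strand clusters on a modified Illumina MiSeq flow-cell, with NaOH stripping and re-annealing between cycles. In each cycle, clusters annealed to 100 nM quencher-labelled ATP aptamer were imaged in selection buffer, then after 15 min with 500 uM ATP at 22 °C. Per cluster, the fluorescence ratio is summed target-cycle over summed buffer-cycle Cy3 intensity, averaged per switch-domain sequence. Only clusters within 100-1000 RFU were kept.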
For the sequence GCAAAG, the switch fluorescence ratio turned out to be 1.02.

On to CCACAAGGGA, for which the switch fluorescence ratio was found to be 1.11.

Regarding ACGATGTCCA, the switch fluorescence ratio was found to be 1.02.

Consider TTCTGTTCAA, for which the switch fluorescence ratio worked out at 1.02.

As for GTATCGGATG, the switch fluorescence ratio was found to be 0.931.

As for GTGAGTGTGG, the switch fluorescence ratio stood at 0.937.

For AATATATAAG, the switch fluorescence ratio was 0.985.

Consider GGCCCGTTGC, for which the switch fluorescence ratio was 1.04.

Consider ATGAACCCTG, for which the switch fluorescence ratio amounted to 0.993.

For the sequence TGTGACGGAT, the switch fluorescence ratio came to 0.977.

As to CATTGGCAAC, the switch fluorescence ratio came out at 1.33.

As for ACCATACGTC, the switch fluorescence ratio stood at 1.29.

In the case of TGTTTGGGTC, the switch fluorescence ratio was 0.995.

CTAGGTATT: the switch fluorescence ratio is 0.986.

In the case of CGTTATGATA, the switch fluorescence ratio was found to be 1.02.

Regarding GCTGTATTGC, the switch fluorescence ratio came to 0.955.

CGGCCGGTA: the switch fluorescence ratio is 1.03.

For the sequence CATGTTACTG, the switch fluorescence ratio was 0.907.

For the sequence GATTATCGTG, the switch fluorescence ratio was found to be 1.02.

As for AGGGTGATCT, the switch fluorescence ratio came to 0.971.

On to GCATGTTAGT, for which the switch fluorescence ratio was determined as 0.97.

Take TATTTATGAT: the switch fluorescence ratio came out at 0.963.

As to GAAGTGTAGG, the switch fluorescence ratio was 1.04.

Consider TACGCACAGG, for which the switch fluorescence ratio was determined as 1.57.

CAGATTGTTG: the switch fluorescence ratio was determined as 0.968.

With TCGTTTATCG, the switch fluorescence ratio was 1.02.

For the sequence TGACGATTGC, the switch fluorescence ratio was 1.18.

As to GTGCCAGAGG, the switch fluorescence ratio stood at 1.

Regarding GGCGATACCA, the switch fluorescence ratio turned out to be 1.02.

With CCTTTCTTA, the switch fluorescence ratio is 1.08.

For AGTCGTTAGG, the switch fluorescence ratio stood at 1.05.

Consider ACCGATAGGA, for which the switch fluorescence ratio came out at 1.11.

Take AGCTTGCGCT: the switch fluorescence ratio was 1.

On to CCGATAGTTG, for which the switch fluorescence ratio worked out at 1.08.

In the case of TGAGATGATT, the switch fluorescence ratio worked out at 1.03.

For AGCTGTGGCT, the switch fluorescence ratio was determined as 0.943.

GTAGGGTTGC: the switch fluorescence ratio was found to be 1.02.

Take TGGTCTTGGC: the switch fluorescence ratio amounted to 0.994.

Take ATGACAGAGG: the switch fluorescence ratio was 1.04.

With CGTTTCTTGA, the switch fluorescence ratio was 1.01.

TCCATAAGTT: the switch fluorescence ratio came to 1.01.

Take TGCTAAATAA: the switch fluorescence ratio stood at 0.994.

Take TAAATATGTA: the switch fluorescence ratio is 0.99.

For CAAGCACTAA, the switch fluorescence ratio worked out at 1.34.

For GGTCATGTCG, the switch fluorescence ratio was 1.03.

As for AGTAGGCCA, the switch fluorescence ratio is 0.961.

Regarding TTTGCTGACA, the switch fluorescence ratio amounted to 0.991.

As to CCAAAGGCGG, the switch fluorescence ratio stood at 1.04.

Take GCCGAGACGT: the switch fluorescence ratio is 0.983.

Turning to TCGAGAGGAG, the switch fluorescence ratio came out at 1.02.

As for TCCCGGCTGG, the switch fluorescence ratio was found to be 0.981.

Turning to GTAAGTGGAC, the switch fluorescence ratio was 0.974.

Consider TTCGCGCAAT, for which the switch fluorescence ratio was determined as 4.12.

AACGTCATGG: the switch fluorescence ratio was 1.09.

In the case of AATTGGGAAT, the switch fluorescence ratio turned out to be 0.997.

As for CTCCAAGCG, the switch fluorescence ratio is 1.08.

Turning to GTCGGAGAGA, the switch fluorescence ratio came out at 0.987.

On to TCGAATTGTT, for which the switch fluorescence ratio is 1.

Regarding TTTGGTTTG, the switch fluorescence ratio came to 0.979.

On to ATCGTGATAC, for which the switch fluorescence ratio stood at 4.58.

In the case of GCAAGGCA, the switch fluorescence ratio came to 2.01.

Take CAGGTCGAGT: the switch fluorescence ratio amounted to 0.946.

Turning to GCCCAAATGT, the switch fluorescence ratio was 1.

Regarding ACGAACATTT, the switch fluorescence ratio was 1.29.

As to TGTGGGTACC, the switch fluorescence ratio was 0.959.

Regarding CAGCAGGATA, the switch fluorescence ratio came to 1.01.

For TCCCCTCTCG, the switch fluorescence ratio amounted to 1.01.

For the sequence TGAAATCGGA, the switch fluorescence ratio stood at 0.988.

GGAATAGTCC: the switch fluorescence ratio was 1.53.

As to CGTGTCGTGG, the switch fluorescence ratio worked out at 1.06.

With AGGGCACCCT, the switch fluorescence ratio worked out at 1.01.

Regarding AACATTACTG, the switch fluorescence ratio turned out to be 1.15.

For the sequence AAACCAGGCA, the switch fluorescence ratio amounted to 1.03.

Consider GGCGGAGTC, for which the switch fluorescence ratio turned out to be 1.03.

Take GCACGCTTGC: the switch fluorescence ratio worked out at 1.1.

As for TCTACTAGCG, the switch fluorescence ratio was found to be 1.01.

Take CAGACATCCA: the switch fluorescence ratio was 1.

On to AGATGAGCTC, for which the switch fluorescence ratio amounted to 0.981.

As to GGGTGAACCG, the switch fluorescence ratio was determined as 0.962.

GATTTGAATG: the switch fluorescence ratio was determined as 0.944.

As for CGACTGAAG, the switch fluorescence ratio amounted to 1.02.

Take GGGCTCATTG: the switch fluorescence ratio worked out at 0.967.

As to AATTCGCGAG, the switch fluorescence ratio is 0.987.

For ATACGTCTTT, the switch fluorescence ratio turned out to be 0.975.

GTCAGCATAT: the switch fluorescence ratio was found to be 1.32.

On to GTTGCTAGCT, for which the switch fluorescence ratio was determined as 0.993.

Regarding TGGTAGAGGT, the switch fluorescence ratio was determined as 0.96.

As to GCATTTAGGT, the switch fluorescence ratio was 1.

Regarding AGTTGCAGGC, the switch fluorescence ratio amounted to 1.06.

TGCCATAAGC: the switch fluorescence ratio was found to be 0.959.

With TATTGAATG, the switch fluorescence ratio came to 0.979.

For the sequence CTTTTGCAGA, the switch fluorescence ratio is 1.05.

For the sequence GAGTAGAGTC, the switch fluorescence ratio is 1.01.

For the sequence TAGTGTGCA, the switch fluorescence ratio is 0.981.

On to TGGGCGCGTT, for which the switch fluorescence ratio was determined as 1.02.

For the sequence TAATATCGTT, the switch fluorescence ratio was found to be 0.999.

Take TGATCTGCAC: the switch fluorescence ratio turned out to be 1.29.

As for CGTAGATCG, the switch fluorescence ratio turned out to be 0.986.

Take AATTGGTTGG: the switch fluorescence ratio is 0.992.

With TAATGACGAG, the switch fluorescence ratio was found to be 1.06.

Take TTCATCTGCG: the switch fluorescence ratio turned out to be 1.11.

Regarding GCGCTGGTTG, the switch fluorescence ratio is 0.983.

For CTCTACATG, the switch fluorescence ratio is 1.03.

TTTGTTAAAC: the switch fluorescence ratio was 1.04.

In the case of CAGGATGTCA, the switch fluorescence ratio is 1.03.

For TGAGGAGGAC, the switch fluorescence ratio came to 0.983.

On to CAAATCCGTG, for which the switch fluorescence ratio amounted to 1.02.

As to GATCCGCTTA, the switch fluorescence ratio came to 3.42.

For the sequence AATTATGGAC, the switch fluorescence ratio turned out to be 1.

With GTGTCGAAGC, the switch fluorescence ratio was 0.989.

Turning to AACGTATGCT, the switch fluorescence ratio is 1.01.

For the sequence GAAGACATGC, the switch fluorescence ratio was 1.05.

Consider CTTAGTTTA, for which the switch fluorescence ratio turned out to be 1.02.

As for CAAAAGCAAG, the switch fluorescence ratio was 1.19.

Consider GCCTGGAGTC, for which the switch fluorescence ratio is 1.02.

Take GCGCCCGTTT: the switch fluorescence ratio was found to be 1.05.

In the case of GTTGCGTAAG, the switch fluorescence ratio was found to be 0.972.

For the sequence TACTGGCAGG, the switch fluorescence ratio came out at 1.02.

Consider ATTTCAATTG, for which the switch fluorescence ratio worked out at 0.995.

Regarding CAAGGTTTAT, the switch fluorescence ratio came out at 0.998.
